The assay deals with T1, recombinant human BAFF (human, UniProt Q9Y275 fragment).
T1 construct: domain: soluble fragments; Bought reagent; also called rhBAFF
The assay can be described thus: ELISA, rhBAFF coated on plate, detection with HRP anti-human Fc. The method, then:
In vitro binding assay studies of the fusion proteins A and B were performed mainly using ELISA principle. A certain amount of rhBAFF was fixed onto microtiter plates. Each well was added a series of gradient concentration of the fusion proteins A or B to conduct binding reaction. Finally, the amount of the fusion protein binding to rhBAFF on the plate was detected by HRP-conjugated anti-human Fc to examine the bind of rhBAFF.
The soluble fragments of the recombinant human BAFF were diluted with PBS (pH7.4) to 0.5 g/ml and then added to microtiter plates (Greiner bio-one, Cat #655001). Each well was added 50 μl and incubated at 4° C. overnight. On the next day, the plate was washed with ultrapure water and then blocked with 5% non-fat dried milk/PBST. The samples to be detected were diluted with 3-fold gradient starting from 3 μg/ml and then added to microtiter plates. […] The absorbance at 490 nm was detected using a microplate reader (Bio-Rad, iMark) with 655 nm as the reference. The graph was made based on absorbance versus the logarithm of the molar concentration of the sample to be measured and EC₅₀ (the concentration corresponding to 50% of the absorption value change) was calculated by S-curve fitting using Origin software to represent the in vitro binding activity of the sample.
(In general: ELISA stands for enzyme-linked immunosorbent assay.)

T1 sequence (Q9Y275 134-285 limits assumed): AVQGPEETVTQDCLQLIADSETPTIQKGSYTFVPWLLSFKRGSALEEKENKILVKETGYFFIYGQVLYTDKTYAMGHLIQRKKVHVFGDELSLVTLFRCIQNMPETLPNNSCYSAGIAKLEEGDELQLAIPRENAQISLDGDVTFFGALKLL

B1: fusion protein A (Fc fusion)
chain: LPAQVAFTPYAPEPGSTCRLREYYDQTAQMCCSKCSPGQHAKVFCTKTSDTVCDAMRSCPEEQYWDPLLGTCMSCKTICNHQSQRTCAAFCRSLSCRKEQGKFYDHLLRDCISCASICGQHPKQCAYFCENKLRSPVNLPPELR[human IgG1 Fc with D221Y (EU numbers) omitted here]
notes: Expressed in CHO DG44 cells and purified; also called TACI-Fc fusion protein; TACI-Fc
For B1, the binding result was “binds”.

Source of the values: US20170081387A1 (SHANGHAI KANDA BIOTECHNOLOGY, published 2017).
